Results taken from US9872922B2, “Anti-EFNA4 antibody-drug conjugates” (PFIZER, INC., priority 2013, dated 2018).

Columns and labels:
[1] = system: HEK293T parental cells; experiment: Cell binding of huE22 and huE22-AcBut-CM ADC, HEK293T parental; parameters: species or system human
[2] = system: LU86 small-cell lung cancer (SCLC) PDX; experiment: In vivo efficacy, LU86 SCLC PDX
[3] = target: T1, rat EFNA4 (Rattus norvegicus, UniProt D3ZEN1); experiment: SPR (BIAcore 2000) binding, rat EFNA4; conditions: 400 nM antigen
T1 sequence (D3ZEN1 1-204): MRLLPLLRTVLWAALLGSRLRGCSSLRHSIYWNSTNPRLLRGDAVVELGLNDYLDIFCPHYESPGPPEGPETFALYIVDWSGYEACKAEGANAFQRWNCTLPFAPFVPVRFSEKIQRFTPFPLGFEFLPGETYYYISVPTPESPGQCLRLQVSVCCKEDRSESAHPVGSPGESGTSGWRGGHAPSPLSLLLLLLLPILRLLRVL
Protocol: The binding constants of huE22 for human and cynomolgus monkey EFNA4 proteins were determined by surface plasmon resonance (SPR) using BIAcore 2000 (GE Healthcare) using recombinant EFNA4 extracellular domain that was fused to a histidine tag to facilitate purification. The results indicated high affinity of huE22 for both human and cynomolgus monkey EFNA4, see Table 12. The cynomolgus monkey EFNA4 protein sequence is highly homologous to human EFNA4 protein sequence, with 98% identity overall and 98% identity in the extracellular domain. […] The lack of huE22 binding to rat or mouse EFNA4 is likely explained by a non-conserved residue in the rat and mouse EFNA4 sequences within the defined huE22 epitope.

[4] = system: HEK293T-EFNA4 cells; experiment: Cell binding of huE22 and huE22-AcBut-CM ADC, HEK293T-EFNA4; parameters: species or system human
[5] = system: parental HEK293T cells; experiment: Apoptosis by Annexin V / 7AAD staining, parental HEK293T; assay type: cell-based, human; conditions: for % early apoptosis / % late apoptosis / % total apoptosis: HEK293T Parental, Annexin V / 7AAD
Excerpt: (§1) Calicheamicin-generated DNA damage induces apoptosis, which ultimately leads to cell death (Zein et al, 1988; Nicolaou et al, 1994; Prokop et al, 2003).

[6] = system: HEK293T-EFNA4 cells; experiment: Apoptosis by Annexin V / 7AAD staining, HEK293T-EFNA4; assay type: cell-based, human; conditions: for % early apoptosis / % late apoptosis / % total apoptosis: Annexin V / 7AAD
Excerpt: as §1

B1: huE22-AcBut-CM: huE22 conjugated via lysine residues to AcBut-N-acetyl-γ-calicheamicin dimethyl hydrazide (AcBut-CM) (conjugate)
heavy: QVQLVQSGAEVKKPGASVKVSCKASGYTFTGYYIHWVRQAPGQGLEWMGWIYPGNFNTKYNERFKGRVTMTTDTSTSTAYMELRSLRSDDTAVYYCAREDGSPYYAMDYWGQGTSVTVSS[human IgG1 constant region omitted here]
light: DIVMTQTPLSLSVTPGQPASISCRSSQSLVHSNGNTFLYWYLQKPGQSPQLLIYRVSNRFSGVPDRFSGSGSGTDFTLKISRVEAEDVGVYYCFQATHVPWTFGGGTKVEIKRTVAAPSVFIFPPSDEQLKSGTASVVCLLNNFYPREAKVQWKVDNALQSGNSQESVTEQDSKDSTYSLSSTLTLSKADYEKHKVYACEVTHQGLSSPVTKSFNRGEC
B1 was tested. Which Cell binding ([1]; 0.3 μg/mL) did it give?
Its Cell binding is 6.8.

And the Cell binding ([1]; 1.0 μg/mL)?
Its Cell binding is 6.1.

And the Cell binding ([1]; 3.0 μg/mL)?
Its Cell binding is 8.2.

And the Cell binding ([1]; 10.0 μg/mL)?
The Cell binding was 13.4.

And the mean tumor volume ([2]; 0.09 mg/kg, Day 0)?
Its mean tumor volume is 143 ± 10.

What about the mean tumor volume ([2]; 0.09 mg/kg, Day 7) of the same molecule?
The mean tumor volume was 215 ± 19.

And the mean tumor volume ([2]; 0.09 mg/kg, Day 14)?
The mean tumor volume was 66 ± 9.

And the mean tumor volume ([2]; 0.09 mg/kg, Day 21)?
Its mean tumor volume is 0 ± 0.

And the mean tumor volume ([2]; 0.09 mg/kg, Day 28)?
The mean tumor volume was 0 ± 0.

And the mean tumor volume ([2]; 0.09 mg/kg, Day 35)?
Its mean tumor volume is 0 ± 0.

What about the mean tumor volume ([2]; 0.09 mg/kg, Day 42) of the same molecule?
The mean tumor volume was 0 ± 0.

What about the mean tumor volume ([2]; 0.09 mg/kg, Day 49) of the same molecule?
Its mean tumor volume is 0 ± 0.

And the mean tumor volume ([2]; 0.09 mg/kg, Day 56)?
The mean tumor volume was 0 ± 0.

What about the mean tumor volume ([2]; 0.09 mg/kg, Day 63) of the same molecule?
Its mean tumor volume is 28 ± 22.

And the mean tumor volume ([2]; 0.09 mg/kg, Day 70)?
Its mean tumor volume is 52 ± 34.

What about the mean tumor volume ([2]; 0.09 mg/kg, Day 77) of the same molecule?
Its mean tumor volume is 93 ± 60.

And the mean tumor volume ([2]; 0.09 mg/kg, Day 84)?
Its mean tumor volume is 117 ± 75.

And the mean tumor volume ([2]; 0.09 mg/kg, Day 92)?
Its mean tumor volume is 237 ± 124.

What about the mean tumor volume ([2]; 0.09 mg/kg, Day 98) of the same molecule?
Its mean tumor volume is 304 ± 154.

What about the mean tumor volume ([2]; 0.09 mg/kg, Day 105) of the same molecule?
Its mean tumor volume is 385 ± 179.

What about the mean tumor volume ([2]; 0.09 mg/kg, Day 112) of the same molecule?
Its mean tumor volume is 420 ± 171.

What about the mean tumor volume ([2]; 0.09 mg/kg, Day 119) of the same molecule?
Its mean tumor volume is 491 ± 163.

What about the mean tumor volume ([2]; 0.09 mg/kg, Day 126) of the same molecule?
The mean tumor volume was 602 ± 165.

And the mean tumor volume ([2]; 0.09 mg/kg, Day 133)?
Its mean tumor volume is 828 ± 213.

And the mean tumor volume ([2]; 0.27 mg/kg, Day 0)?
The mean tumor volume was 138 ± 9.

And the mean tumor volume ([2]; 0.27 mg/kg, Day 7)?
The mean tumor volume was 105 ± 12.

And the mean tumor volume ([2]; 0.27 mg/kg, Day 14)?
Its mean tumor volume is 0 ± 0.

What about the mean tumor volume ([2]; 0.27 mg/kg, Day 21) of the same molecule?
The mean tumor volume was 0 ± 0.

And the mean tumor volume ([2]; 0.27 mg/kg, Day 28)?
Its mean tumor volume is 0 ± 0.

And the mean tumor volume ([2]; 0.27 mg/kg, Day 35)?
The mean tumor volume was 0 ± 0.

And the mean tumor volume ([2]; 0.27 mg/kg, Day 42)?
The mean tumor volume was 0 ± 0.

What about the mean tumor volume ([2]; 0.27 mg/kg, Day 49) of the same molecule?
Its mean tumor volume is 0 ± 0.

What about the mean tumor volume ([2]; 0.27 mg/kg, Day 56) of the same molecule?
Its mean tumor volume is 0 ± 0.

And the mean tumor volume ([2]; 0.27 mg/kg, Day 63)?
The mean tumor volume was 0 ± 0.

What about the mean tumor volume ([2]; 0.27 mg/kg, Day 70) of the same molecule?
Its mean tumor volume is 0 ± 0.

What about the mean tumor volume ([2]; 0.27 mg/kg, Day 77) of the same molecule?
The mean tumor volume was 0 ± 0.

What about the mean tumor volume ([2]; 0.27 mg/kg, Day 84) of the same molecule?
Its mean tumor volume is 0 ± 0.

What about the mean tumor volume ([2]; 0.27 mg/kg, Day 92) of the same molecule?
The mean tumor volume was 6 ± 6.

What about the mean tumor volume ([2]; 0.27 mg/kg, Day 98) of the same molecule?
The mean tumor volume was 34 ± 24.

What about the mean tumor volume ([2]; 0.27 mg/kg, Day 105) of the same molecule?
The mean tumor volume was 56 ± 32.

What about the mean tumor volume ([2]; 0.27 mg/kg, Day 112) of the same molecule?
Its mean tumor volume is 99 ± 56.

And the mean tumor volume ([2]; 0.27 mg/kg, Day 119)?
Its mean tumor volume is 171 ± 109.

And the mean tumor volume ([2]; 0.27 mg/kg, Day 126)?
The mean tumor volume was 239 ± 139.

What about the mean tumor volume ([2]; 0.27 mg/kg, Day 133) of the same molecule?
The mean tumor volume was 370 ± 201.

And the mean tumor volume ([2]; 0.27 mg/kg, Day 140)?
Its mean tumor volume is 429 ± 210.

What about the mean tumor volume ([2]; 0.27 mg/kg, Day 147) of the same molecule?
Its mean tumor volume is 469 ± 222.

And the mean tumor volume ([2]; 0.27 mg/kg, Day 154)?
The mean tumor volume was 599 ± 286.

What about the “binding to rat antigen” value [3] of the same molecule?
Its value is “No binding detected at”.

What about the Cell binding ([4]; 0.3 μg/mL) of the same molecule?
Its Cell binding is 446.

What about the Cell binding ([4]; 1.0 μg/mL) of the same molecule?
The Cell binding was 621.

What about the Cell binding ([4]; 3.0 μg/mL) of the same molecule?
Its Cell binding is 728.

And the Cell binding ([4]; 10.0 μg/mL)?
Its Cell binding is 863.

What about the “% early apoptosis” value ([5]; 1 ng/mL) of the same molecule?
The value was 6.0%.

What about the “% late apoptosis” value ([5]; 1 ng/mL) of the same molecule?
Its value is 1.6%.

What about the “% total apoptosis” value ([5]; 1 ng/mL) of the same molecule?
The value was 7.6%.

What about the “% late apoptosis” value ([5]; 100 ng/mL) of the same molecule?
The value was 1.6%.

And the “% total apoptosis” value ([5]; 100 ng/mL)?
Its value is 5.6%.

And the “% early apoptosis” value ([5]; 1000 ng/mL)?
The value was 6.0%.

What about the “% late apoptosis” value ([5]; 1000 ng/mL) of the same molecule?
Its value is 3.4%.

What about the “% total apoptosis” value ([5]; 1000 ng/mL) of the same molecule?
Its value is 9.4%.

What about the “induction of apoptosis (Annexin V)” value ([5]; parental HEK293T) of the same molecule?
Its value is “treatment of parental HEK293T cells did not”.

And the “induction of apoptosis (Annexin V)” value ([6]; HEK293T-EFNA4)?
The value was “substantially higher levels of apoptotic cells”.

And the “% early apoptosis” value ([6]; HEK293T-EFNA4, 1 ng/mL)?
The value was 22.4%.

And the “% late apoptosis” value ([6]; HEK293T-EFNA4, 1 ng/mL)?
Its value is 7.8%.

And the “% total apoptosis” value ([6]; HEK293T-EFNA4, 1 ng/mL)?
Its value is 30.2%.

What about the “% early apoptosis” value ([6]; HEK293T-EFNA4, 100 ng/mL) of the same molecule?
The value was 19.0%.

And the “% late apoptosis” value ([6]; HEK293T-EFNA4, 100 ng/mL)?
The value was 10.2%.

And the “% total apoptosis” value ([6]; HEK293T-EFNA4, 100 ng/mL)?
The value was 29.2%.

What about the “% early apoptosis” value ([6]; HEK293T-EFNA4, 1000 ng/mL) of the same molecule?
The value was 17.9%.

And the “% late apoptosis” value ([6]; HEK293T-EFNA4, 1000 ng/mL)?
The value was 8.6%.

What about the “% total apoptosis” value ([6]; HEK293T-EFNA4, 1000 ng/mL) of the same molecule?
The value was 26.5%.
